Measurements: PubChem BioAssay AID463173 (ICCB-Longwood Screening Facility, Harvard Medical School, 2010)
Out of some 52,000 compounds screened, about 4,300 (8.3%) were called active. Rule as the data show it: active = survival mostly below about 52% (no sharp cut-off); inactive = mostly above about 56%. This is one part of the list.

Tested on: DeltatarO mutant
Test: growth inhibition of S. aureus wild type versus tarO mutant, primary screen, teichoic acid synthesis inhibitors, RN4220, OD600 (AID 463173)
Settings: OD600, 18 h, stronger effect = lower value, screened at 18.75 µg/mL (by protocol)

Structure (SMILES)	survival
CCCCCCOc1ccc(C2C(=O)N(C3CCCCC3)CC(=O)N2CCCC)cc1 (configuration not stated)	inactive: 103%
CCOc1cccc(C(=O)Nc2cc(-c3ccc(C)cc3)no2)c1	inactive: 70%
CN(C)c1ccc(CNC(=O)CCS(=O)(=O)c2ccc3c(c2)oc(=O)n3C)cc1	inactive: 82%
CCCCN1C(C(=O)c2ccccc2)=C(OC(C)=O)c2ccccc2S1(=O)=O	active: -4%
Cc1noc(Cn2c(=O)c3cc4c(cc3n(CC(=O)Nc3ccccc3Br)c2=O)OCO4)n1	inactive: 117%
COc1ccc(NC(=O)CNC(=O)Cn2c(C)cc3ccccc3c2=O)cc1OC	inactive: 62%
CCCn1c(N2CCN(C(=O)N3CCCCC3)CC2)nc2ccccc21	inactive: 99%
COc1ccc(C)cc1N(C)C(=O)c1c2c(nc3ccccc13)C(=O)N(C1CCCCC1)C2	inactive: 70%
CC(C)N(Cc1ccccc1)S(=O)(=O)c1ccc(F)cc1	inactive: 96%
COc1ccc(CNS(=O)(=O)c2ccc(-c3cnc(C4CC4)o3)cc2)cc1	inactive: 83%
CCOc1ccc(N(CC)S(=O)(=O)N2CCCC(C(=O)Nc3cc(Cl)ccc3OC)C2)cc1 (configuration not stated)	inactive: 83%
COc1ccc(Nc2ncc(C(=O)N3CCN(c4ccc(F)cc4)CC3)c3ccccc23)cc1	inactive: 64%
CCOc1ccc(NCc2cccn2-c2nnc(N3CCC(C(=O)NCCOC)CC3)s2)cc1	inactive: 67%
C=C(C)Cn1c(=O)c2c(nc3n2CCN3c2ccc(F)cc2)n(C)c1=O	inactive: 86%
Cc1cc(=O)n2nc(N3CCC(C(=O)NCc4ccc(F)cc4)CC3)sc2n1	inactive: 95%
Cc1ccccc1Nc1cc(C(=O)NCc2cccs2)c2ccccc2n1	inactive: 84%
CCOc1ccc(Cn2c(CNS(=O)(=O)c3cccc(Cl)c3)nc3cccnc32)cc1	inactive: 94%
CCc1ccc(NC(=O)CSc2nc3c(sc4ccccc43)c(=O)n2CCCOC(C)C)cc1	inactive: 73%
COc1ccccc1C(=O)N1CCN(Cc2cc(=O)oc3cc(C)ccc23)CC1	active: 38%

Structure (SMILES)	survival
Cc1ccc(NCc2nnc(SCc3nc4ccccc4c(=O)[nH]3)n2Cc2ccco2)c(C)c1	inactive: 75%
COc1ccc(-c2nc3ccc(NS(=O)(=O)c4ccc(Cl)cc4)cc3o2)cc1	active: 23%
Cc1ccc(CNC(=O)c2ccc(CSCc3ccccc3C)o2)cc1	inactive: 70%
COc1ccc(-c2nc3scc(CCNS(=O)(=O)c4ccc(NC(C)=O)cc4)n3n2)cc1	inactive: 79%
O=S(=O)(NC1CC1)c1ccc(S(=O)(=O)N(Cc2ccccn2)C2CC2)cc1	inactive: 91%
CCOC(=O)c1ccc(NC2SC(=O)N(Cc3cccc(C(=O)O)c3)C2=O)cc1 (configuration not stated)	inactive: 60%
COc1cc2nc(SCC(=O)Nc3ccccc3F)n3nc(-c4ccccc4)nc3c2cc1OC	inactive: 65%
CCC(C)NC(=O)c1cccc(NC(=O)c2nsc3ccccc23)c1 (configuration not stated)	inactive: 74%
COc1ccccc1NC(=O)CSC1=Nc2ccccc2C2=NC(CCC(=O)NCc3cccs3)C(=O)N12 (configuration not stated)	inactive: 79%
COc1ccc(-n2cc(C(=O)NCc3ccccc3Cl)c3ccccc3c2=O)cc1	inactive: 108%
CCCc1cc(-c2ccc(O)c(OCC)c2)c(C#N)c(N)n1	inactive: 66%
CCCCN(CC)C(=O)Cn1ncc2c3ccccc3n(CCC)c2c1=O	inactive: 77%
CCOc1cccc(C(=O)N(Cc2ccc(CC)cc2)C2CCS(=O)(=O)C2)c1 (configuration not stated)	inactive: 149%
CCCNC(=O)Cn1nc(-c2ccc(F)cc2)c2cnc3ccc(F)cc3c21	inactive: 83%
COc1ccc(C)cc1NC(=O)Cn1c(=O)ccc2cc(S(=O)(=O)N3CCC(C)CC3)ccc21	inactive: 95%
CCOc1ccc(CCNC(=O)c2ccc(CS(=O)Cc3cccc(Cl)c3)o2)cc1 (configuration not stated)	inactive: 50%
COC(=O)c1ccc(NC(=O)CSc2ncc3c(n2)-c2cc(Cl)ccc2N(Cc2ccccc2)S3(=O)=O)cc1	inactive: 58%
COc1ccc(NC(=O)c2c(NCc3sccc3C)sc3c2CCCCC3)c(OC)c1	inactive: 85%
Cc1ccc2c(=O)c(C(=O)c3ccc(Cl)cc3)cn(CC(=O)NC3CCCCC3)c2n1	inactive: 71%

Structure (SMILES)	survival
O=S(=O)(c1ccc(F)cc1)N(Cc1nc(-c2ccc(Cl)cc2)no1)C1CCCCC1	inactive: 76%
Cc1ccccc1-c1nnc(SCC(=O)c2ccccc2)o1	inactive: 98%
Cc1ccc(C)c(OCC(=O)Nc2ccc(S(=O)(=O)Nc3onc(C)c3C)cc2)c1C	inactive: 165%
CCC(C(=O)Nc1ccccc1OC)n1nc(C)c2sc3ccccc3c2c1=O (configuration not stated)	inactive: 75%
COc1cccc(-n2c(C)c3c(OC)cccc(=O)c3c2C)c1	inactive: 93%
CC(Sc1cn(CCNC(=O)c2ccccc2F)c2ccccc12)c1ccccc1 (configuration not stated)	active: 42%
Cc1ccc(NC(=O)c2c(C)oc3nc(C)nc(N4CCCC4)c23)c(C)c1	inactive: 70%
CCN(CCCNC(=O)CSc1cc(=O)n(CC)c2ccccc12)c1cccc(C)c1	active: 38%
Cc1c(Cl)cccc1NC(=O)Nc1nnc(N(C)Cc2ccccc2)s1	inactive: 71%
Cc1c(NC(=O)C(C)(C)Oc2ccc(Cl)cc2)cccc1-c1nc2ncccc2o1	active: 19%
CC1=C(C(=O)NCc2ccccc2C)C2(CCCCC2)OC1=O	inactive: 74%
CC(=O)c1ccc(NC(=O)Cn2cc(S(=O)(=O)Cc3ccccc3Cl)c3ccccc32)cc1	inactive: 74%
c1ccc(C(c2ccccc2)N2CCN(Cc3nnnn3Cc3ccc4c(c3)OCO4)CC2)cc1	inactive: 73%
Cc1cc(N2CCCC2)c2ccccc2n1	inactive: 96%
COc1ccc(Br)cc1C(=O)Nc1ccc(-c2nc3cc(Cl)ccc3o2)cc1	active: 43%
Cc1cc(C)c(C(N)=O)c(=S)[nH]1	inactive: 99%
O=C(CCS(=O)(=O)c1cc(Br)cc2c1N(C(=O)C1CC1)CC2)NCc1ccccc1Cl	inactive: 100%
COc1ccc2c(c1)c(=O)c(S(=O)(=O)c1ccc(C)cc1)cn2Cc1ccccc1C	inactive: 60%
CCC(C(=O)Nc1cc(F)ccc1F)n1nc(-c2cc(C)ccc2C)ccc1=O (configuration not stated)	active: 38%
